Data as given in article PMC6919601, “Identification of Plasmodium dipeptidyl aminopeptidase allosteric inhibitors by high throughput screening” (PLoS ONE, 2019).
The campaign covered roughly 110,000 compounds. About 230 (0.21%) showed an effect of 50% or more. This is one part of the list.

Each compound was assayed against DPAP1 (Plasmodium falciparum, UniProt Q8IIJ9) (assay: primary screen, percent inhibition; read by cleavage of a fluorogenic dipeptide substrate; higher = more effect of the substance).
Parameters: species or system P. falciparum D10 trophozoite lysates; single well
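Further: 30 min substrate incubation versus DMSO and 10 µM JCP410 controls.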

DPAP1, sequence (Q8IIJ9 whole entry, looked up): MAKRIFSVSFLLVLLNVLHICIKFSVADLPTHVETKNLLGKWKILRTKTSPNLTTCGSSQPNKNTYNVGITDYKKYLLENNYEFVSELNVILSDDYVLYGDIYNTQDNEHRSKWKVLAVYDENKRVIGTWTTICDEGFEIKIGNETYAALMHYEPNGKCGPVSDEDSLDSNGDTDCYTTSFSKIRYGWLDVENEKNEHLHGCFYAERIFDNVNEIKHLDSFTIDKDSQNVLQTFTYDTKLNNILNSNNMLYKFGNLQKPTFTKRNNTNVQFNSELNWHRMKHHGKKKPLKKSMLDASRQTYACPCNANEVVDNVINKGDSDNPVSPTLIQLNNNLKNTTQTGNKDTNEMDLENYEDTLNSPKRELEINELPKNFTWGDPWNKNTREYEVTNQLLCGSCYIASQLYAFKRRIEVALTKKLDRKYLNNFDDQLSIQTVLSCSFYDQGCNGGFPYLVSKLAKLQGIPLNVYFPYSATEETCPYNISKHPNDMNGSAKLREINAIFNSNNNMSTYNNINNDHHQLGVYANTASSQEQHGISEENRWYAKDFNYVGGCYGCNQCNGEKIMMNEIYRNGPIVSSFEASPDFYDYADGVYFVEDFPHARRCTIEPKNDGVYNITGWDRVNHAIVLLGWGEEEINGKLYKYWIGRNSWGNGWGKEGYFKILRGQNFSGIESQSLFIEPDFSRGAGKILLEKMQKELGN

Structure (SMILES)	% Inhibition @ 10 uM [%]
CCn1c(C)c(C)c2cc(C(=O)NCCC(C)C)ccc21	1.78
O=C(CSc1ccccn1)N1CCc2ccccc2C1	-0.68
Cc1ccccc1CNC(=O)CCn1c(=O)c2cccn2c2cccnc21	6.15
O=C(/C=C/c1ccc2c(c1)OCO2)Nc1cccc(Cl)c1	-2.18
Nc1c(C(=O)Nc2ccc3c(c2)OCO3)sc2nc(-c3ccc4c(c3)OCO4)ccc12	5.12
O=C1CN(C(=O)C2CCCCC2)C=CN1CCc1ccccc1	-2.39
COc1ccc(C(=O)N(C(=O)c2ccc(OC)c(OC)c2)c2cc(C)ccn2)cc1OC	0.413
Cc1c(C(=O)N(C)C23CC4CC(CC(C4)C2)C3)c(-c2ccccc2)nn1-c1ccccc1	-2.56
CCOC(=O)NCCCCNC(=O)c1c(O)oc2ccccc2c1=O	2.25
Nc1ccc(C(=O)C(=O)c2ccccc2)cc1	0.0451
COc1ccc(S(=O)(=O)N(CC(=O)N2CCN(c3ccccc3)CC2)Cc2ccccc2)cc1	3.24
COC(=O)c1c(NC(=O)C(F)(F)F)sc(Cc2ccccc2)c1C	-0.053
O=[N+]([O-])c1ccc(S(=O)(=O)NCCCN2CCOCC2)cc1	3.25
O=c1c2ccccc2cnn1Cc1nnc(S)n1-c1ccc(F)c(Cl)c1	19.9
Cn1c2ccccc2c2nn3c(SCC(=O)O)nnc3nc21	0.884
CCn1c2ccccc2c2cc(CN3CCN(c4ccccc4F)CC3)ccc21	5.32
COc1ccc(C2=NCCc3cc(OC)c(OC)cc32)cc1OC	-3.86
COc1ccccc1-n1c(S)nnc1CNC(=O)c1cc(Cl)ccc1Cl	-0.339
Cc1ccc(S(=O)(=O)N(CC(=O)NCc2ccccn2)c2cccc(Br)c2)cc1	-16.1
C=CCOc1ccc(C2C(C#N)=C(N)OC3=C2C(=O)CCC3)cc1 (stereo not drawn)	-0.99
Cc1nn(C)c(C)c1/C=C(/C(=O)c1ccc(Cl)cc1Cl)n1cncn1	0.00706
CCCCS(=O)(=O)CC(O)COc1ccc(Cl)cc1 (stereo not drawn)	-5.65

Structure (SMILES)	% Inhibition @ 10 uM [%]
O=S(=O)(c1ccc(Cl)cc1)c1cnc2cc3c(cc2c1O)OCCO3	1.62
CCOc1ccc(C(=O)Nc2ccc(Br)cc2C(=O)O)cc1Cl	3.53
CCCCOc1ccc(S(=O)(=O)NCc2ccccc2)cc1	4.18
Cc1cc(C)c2oc(C(=O)N3CCN(C)CC3)cc(=O)c2c1	-5.08
CCN1C(=O)CCN(C(C)=O)c2ccccc21	-1.98
CC(C)(C)C(/C=C\c1ccc(Cl)cc1Cl)n1nnnc1C1(Nc2ccccc2)CCCCC1 (stereo not drawn)	0.00784
Cc1cccc(NC(=O)c2cccc3ccccc23)c1C	6.6
O=C(COc1ccc(NC(=O)c2cccs2)cc1)c1ccc(Br)cc1	0.408
O=S(=O)(Cc1ccccc1)N1CCC(Oc2ccc(-n3cnnn3)cc2)CC1	-4.67
COc1ccc(CN2C(=O)c3cccnc3C2=O)cc1S(=O)(=O)NC1CCCc2ccccc21 (stereo not drawn)	4.9
O=C(CC1Nc2ccccc2NC1=O)Nc1ccc(Br)cc1 (stereo not drawn)	20.2
C=C(C)CN(CC)Cc1[nH]cnc1C	-1.41
Cc1ccc(NC(=O)Nc2c(C)nn(Cc3ccccc3Cl)c2C)cc1	-0.67
Cc1ccc2c(CNC3CCCCCC3)c(C(=O)O)[nH]c2c1	-2.97
Cn1c(=O)[nH]c(=O)c2c1nc(N1CCN(Cc3ccccc3)CC1)n2CCCSc1ncccn1	-4.54
O=C(c1nnc(Cc2ccc(F)cc2Cl)o1)N1CCCC1	1.49
CC1CN(C)C(C)C/C1=N/OC(=O)c1ccc(Br)cc1 (stereo not drawn)	-4.27
Cc1ccc(NC(=O)c2ccccc2Cl)nc1	-3.43
OC1CCN(Cc2c(Cl)cccc2Cl)C1 (stereo not drawn)	4.55
COCCNC(=O)Cn1cc(S(=O)(=O)Cc2cccc(Cl)c2)c2ccccc21	5.15
Cc1ccc(NCN2C(=O)C3C4CCC(C4)C3C2=O)cc1 (stereo not drawn)	6.4
Cc1ccc(C)c(NC(=O)CSc2nc(C)cc(C)n2)c1	-4.06

Structure (SMILES)	% Inhibition @ 10 uM [%]
CC1(C)OC(c2ccccc2)CC1=O (stereo not drawn)	1.54
NC(=O)C1CCN(c2nc3c(S(=O)(=O)c4ccccc4)nnn3c3ccsc23)CC1	-6.55
COc1cccc(NC(=O)c2ccc(C(C)(C)C)cc2)c1	-1.25
OC(CN1CCOCC1)c1ccc2cc[nH]c2c1 (stereo not drawn)	-1.08
COc1ccccc1NC(=O)CCCC(=O)O	-4.35
CCOC(=O)c1oc2c(c1C)/C(=N/O)CCC2	-2
Cc1c(Cl)cccc1-n1nnc(-c2nsc(NC(=O)c3ccccc3)n2)c1C	1.78
CC1=C(C(=O)Nc2ccccc2C)C(c2ccccc2)n2c(s/c(=C/c3cnn(C)c3)c2=O)=N1 (stereo not drawn)	-0.28
CCC(C)NC(=O)Cn1ncc2c3ccccc3n(C)c2c1=O (stereo not drawn)	8.86
CC(C)C[C@@H](C(=O)NCC#N)c1cccc(C#CCN2CCOCC2)c1	-10.1
c1ccc(N2CCN(Cc3ccc4c(c3)OCO4)CC2)nc1	-15.9
O=C(Nc1cc(Cl)cc(Cl)c1)c1cccs1	-4.91
COC(=O)NCC(c1cccnc1)N1CCOCC1 (stereo not drawn)	-9.28
O=C(Nc1ccccc1[N+](=O)[O-])c1cccc(S(=O)(=O)N2CCCCC2)c1	-3.52
Cc1cc(C)cc(NS(=O)(=O)c2ccc(NC(=O)C3CC3)cc2)c1	0.245
O=C1CCC(C(=O)O)(c2ccccc2)N1Cc1ccccc1 (stereo not drawn)	-5.28
O=C(Cn1cc(S(=O)(=O)Cc2cccc(F)c2)c2ccccc21)N1CCCC1	4.54
O=C(O)CSc1ncnc2scc(-c3ccc(Br)cc3)c12	1.62
COc1ccc(C2OC(C)CN(C(=O)c3ccc4c(c3)OCO4)O2)cc1OC (stereo not drawn)	0.343
Clc1ccc(Nc2n[nH]c(CSc3ccccc3)n2)cc1	3.53
Cc1nc2sc3c(NCC(C)C)ncnc3c2c2c1COC(C)(C)C2	-1.33
CCn1ncc(Br)c1C(=O)Nc1ccc(C)cc1C	-5.46
